# From article PMC4336329 (PLoS ONE, 2015)
# Among all 310,000 compounds or so, about 2,200 (0.71%) showed an effect of 50% or more. The effect is printed as a negative number. The list shows a part of the results.
# Molecular target: human ether-à-go-go-related gene (hERG) potassium channel (human, UniProt Q12809)
# Experiment: primary screen, population patch clamp on CHO cells stably expressing hERG
# human ether-à-go-go-related gene (hERG) potassium channel, sequence (Q12809 whole entry, looked up): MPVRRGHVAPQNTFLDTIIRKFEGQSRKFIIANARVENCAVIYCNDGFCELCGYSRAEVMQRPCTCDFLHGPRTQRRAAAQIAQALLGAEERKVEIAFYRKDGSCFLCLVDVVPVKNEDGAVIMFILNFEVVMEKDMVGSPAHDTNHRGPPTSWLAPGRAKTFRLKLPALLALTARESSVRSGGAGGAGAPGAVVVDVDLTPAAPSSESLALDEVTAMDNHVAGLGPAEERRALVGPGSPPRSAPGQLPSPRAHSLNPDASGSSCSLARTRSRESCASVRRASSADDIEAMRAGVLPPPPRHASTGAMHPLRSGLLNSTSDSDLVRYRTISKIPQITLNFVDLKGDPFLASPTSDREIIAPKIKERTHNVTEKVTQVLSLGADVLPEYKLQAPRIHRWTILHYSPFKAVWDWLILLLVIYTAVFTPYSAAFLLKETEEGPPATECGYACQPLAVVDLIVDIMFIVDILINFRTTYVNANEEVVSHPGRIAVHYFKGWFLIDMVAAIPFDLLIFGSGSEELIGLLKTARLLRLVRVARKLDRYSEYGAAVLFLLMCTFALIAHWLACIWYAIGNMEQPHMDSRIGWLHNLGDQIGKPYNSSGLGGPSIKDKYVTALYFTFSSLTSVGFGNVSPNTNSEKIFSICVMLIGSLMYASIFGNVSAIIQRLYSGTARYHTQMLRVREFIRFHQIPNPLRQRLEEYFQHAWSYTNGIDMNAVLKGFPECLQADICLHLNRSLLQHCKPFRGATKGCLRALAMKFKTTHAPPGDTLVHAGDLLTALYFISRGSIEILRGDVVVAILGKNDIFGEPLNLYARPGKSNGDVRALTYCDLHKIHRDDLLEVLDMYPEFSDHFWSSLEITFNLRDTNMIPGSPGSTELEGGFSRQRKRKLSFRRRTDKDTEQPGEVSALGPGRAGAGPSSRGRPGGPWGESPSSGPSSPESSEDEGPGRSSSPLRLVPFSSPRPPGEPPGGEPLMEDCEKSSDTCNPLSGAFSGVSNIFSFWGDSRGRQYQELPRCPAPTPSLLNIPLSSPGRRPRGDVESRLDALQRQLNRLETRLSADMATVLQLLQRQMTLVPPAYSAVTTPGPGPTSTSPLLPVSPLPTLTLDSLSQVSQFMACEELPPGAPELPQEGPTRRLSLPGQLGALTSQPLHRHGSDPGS
row,SMILES,"hERG current change (%, negative = inhibition) at 1uM"
1,O=C(COc1cc2oc(=O)c3c(c2cc1Cl)CCCC3)NCC1CCC(C(=O)O)CC1 (stereo not shown),14.7%
2,CCOc1ccc(C(=O)Nc2cc(OC)ccc2OC)cc1,6.29%
3,O=C(CCC1CCCCC1)N1CCN(Cc2ccc3c(c2)OCO3)CC1,-7.06%
4,CN1C(=O)c2cccc3c(S(=O)(=O)N4CCCC4C(=O)O)ccc1c23 (stereo not shown),14.7%
5,COc1ccc(-c2nnn(CC(=O)N(CC(=O)NC3CCCC3)c3ccccc3)n2)cc1OC,-5.84%
6,N#Cc1ccccc1S(=O)(=O)N1CCN(C(=O)CCC2CCCC2)CC1,7.68%
7,Cc1c(C(=O)N2CCN(Cc3ccccc3)CC2)oc2c1C(=O)CC(C)(C)C2,15.7%
8,COc1cccc(/C=N/NC(=O)CNC(=O)C(c2ccccc2)c2ccccc2)c1O,20.3%
9,Cc1cc(NC(=S)N(CCCN2CCN(C)CC2)Cc2ccco2)ccc1Cl,-11.7%
10,Cc1ccc(CNC(=O)CN(Cc2ccccc2)S(C)(=O)=O)cc1,-3.4%
11,COCCOC(=O)c1c(N)n(Cc2ccc(OC)cc2)c2nc3ccccc3nc12,-33.4%
12,Cc1nc2ccccc2n1C(=O)c1ccc(Cl)cc1[N+](=O)[O-],16%
13,CCN(CC)S(=O)(=O)c1ccc(Cl)c(NC2=NCCCCC2)c1,5.6%
14,CCOc1cc2c3c(c1)C(C)=CC(C)(C)N3C(=O)C2=O,11.7%
15,CCCCC(=O)N(c1ccc(OCC)cc1)C1C=CS(=O)(=O)C1 (stereo not shown),9.96%
16,COc1ccccc1CCN=C(N)NS(=O)(=O)c1cccs1,-5.86%
17,CC1=NN(c2ccccc2)C(=O)/C1=C\C=C\c1ccccc1,5.77%
18,Cc1nn(-c2ccccc2)c(Cl)c1C(=O)NCC(C)C,-5.48%
19,NNC(=O)CSCc1nc(-c2ccccc2)cs1,6.96%
20,Cc1oc(-c2cc(F)cc(F)c2)nc1CN1CCN(C(=O)c2ccco2)CC1,0.472%
21,CCC(=O)c1ccccc1OCCCCn1cncn1.O=C(O)C(=O)O,10.5%
22,CCn1cc(C2=NOC(C(=O)Nc3ccc4c(c3)OCO4)C2)c(C)n1 (stereo not shown),11%
23,Cc1cc(C(=O)Nc2nnc(C3CCCCC3)s2)cs1,8.41%
24,COc1ccc(N2C3=[N+](CC2(C)O)c2ccccc2CC3)cc1.[Br-] (stereo not shown),-2.55%
25,CC1(C)CCCN(C(=O)N2c3ccccc3Sc3ccccc32)C1,12%
26,Nc1cc(S(=O)(=O)Nc2ccc(Cl)cc2)ccc1N1CCOCC1,13.7%
27,CCOc1ccc(NC(=O)Nc2cccnc2)cc1,-0.908%
28,COc1ccc(CC(=O)N(Cc2cc3cc(OC)ccc3[nH]c2=O)C(C)C)cc1,-9.97%

row,SMILES,"hERG current change (%, negative = inhibition) at 1uM"
1,COC(=O)CC(N)c1ccc(OC)c2ccccc12.Cl (stereo not shown),-0.973%
2,COc1ccc(CNC(=O)c2cccnc2Sc2ccc(C)c(C)c2)cc1,14.1%
3,Cc1cc(C(=O)CS(=O)(=O)c2ccc(F)cc2)cc(C)c1O,12.6%
4,CC(C)OCC(O)Cn1c(N2CCCC2)nc2c1c(=O)n(C)c(=O)n2C (stereo not shown),15.5%
5,C/C(CC(=O)NC1CCCCC1)=N\NC(=O)COc1ccc(C)cc1Br,9.88%
6,O=C(CCSc1nc(-c2ccco2)cc(C(F)(F)F)n1)NCc1cccs1,5%
7,Oc1c(Cl)cc(Cl)cc1/C=N/Nc1ncc(Br)cn1,14.9%
8,CC(CC(=O)NCc1cccnc1)c1ccccc1 (stereo not shown),11.8%
9,N#Cc1ccc(NC(=O)CSc2cn[nH]n2)cc1,18.1%
10,NC(=S)N/N=C/c1ccc(-c2cc(Cl)c(Cl)cc2Cl)o1,14.2%
11,O=C(NCCCN1CCOCC1)c1onc(CSc2ccccn2)c1C(=O)NCCCN1CCOCC1,12.1%
12,COC(=O)C1=NN(c2cccc3ccccc23)C2C(=O)N(c3ccccc3OC)C(=O)C12 (stereo not shown),0.143%
13,Cc1nc2ccccc2c(=O)n1-c1ccc(F)c(NC(=O)c2cccs2)c1,1.13%
14,CCOc1cccc(C(=O)NC(=S)Nc2cccc(NC(=O)c3ccccc3Cl)c2)c1,7.8%
15,Cn1c(=O)oc2cc(S(=O)(=O)Nc3ccc(Cl)cc3)ccc21,13.2%
16,CC(OC(=O)c1cccs1)C(=O)NC1CC1 (stereo not shown),7.03%
17,COc1ccc(S(=O)(=O)N2CCC(C(=O)N3CCCCC3)CC2)cc1,16%
18,CCCC(NC(=O)CCl)c1ccccc1 (stereo not shown),7.35%
19,CS(=O)(=O)N1CCN(C(=O)c2cc3ccccc3oc2=O)CC1,4.23%
20,COC(=O)c1cc(OC)c(OC)cc1NC(=O)CC1CCCCC1,12.7%
21,CC(C)N1C(=O)c2ccccc2N(Cc2ccccc2)S1(=O)=O,15.5%
22,CC(C)(CC(=O)OCC(=O)Nc1ccccc1F)CC1=NS(=O)(=O)c2ccccc2N1,5.91%
23,CN(CC(=O)Nc1ccc(F)cc1)C(=O)COC(=O)/C=C/c1cccs1,14%
24,CCc1ccc(OCC(=O)NC(NC(=S)Nc2ccc(Cl)cc2)C(Cl)(Cl)Cl)cc1 (stereo not shown),12.1%
25,COc1cc(OC)cc(C(=O)N[C@H](C(=O)OCC(=O)Nc2ccc(C(N)=O)cc2)C(C)C)c1,-8.7%
26,C/C=C(/C)C(=O)OC(C)(C)[C@@H]1Cc2c(ccc3ccc(=O)oc23)O1,0.275%
27,O=C(CSc1nc2c([nH]c3ccccc32)c(=O)n1-c1ccccc1)NCC1CCCO1 (stereo not shown),5.59%
